Whole data set: some 33,000 sequences, median “E-score (-0.5 to 0.5)” near -0.036, cut for the highest 2% near 0.37. Some of the results follow.
Each sequence was assayed against T1, Yer064c (UniProt P40041) (assay: PBM E-score (8-mer binding enrichment) (E-score (-0.5 to 0.5)); higher = stronger / more preferred TF binding; most listed sequences are background and not binding sites). Settings: protein concentration: 200 nM; construct: GST-full length.
T1 sequence: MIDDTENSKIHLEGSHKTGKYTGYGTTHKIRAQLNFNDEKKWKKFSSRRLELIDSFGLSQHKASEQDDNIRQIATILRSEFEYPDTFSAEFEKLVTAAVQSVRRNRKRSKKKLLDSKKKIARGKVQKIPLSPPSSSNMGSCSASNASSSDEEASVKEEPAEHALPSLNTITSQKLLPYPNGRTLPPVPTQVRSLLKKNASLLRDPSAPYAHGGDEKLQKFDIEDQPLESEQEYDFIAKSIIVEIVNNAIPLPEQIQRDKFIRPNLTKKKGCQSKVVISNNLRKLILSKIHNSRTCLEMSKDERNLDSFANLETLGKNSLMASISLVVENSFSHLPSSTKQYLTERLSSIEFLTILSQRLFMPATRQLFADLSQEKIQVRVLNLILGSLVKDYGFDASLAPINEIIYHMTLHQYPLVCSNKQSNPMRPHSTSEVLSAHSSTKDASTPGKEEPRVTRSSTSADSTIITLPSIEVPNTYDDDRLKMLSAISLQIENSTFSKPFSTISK
Protocol: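 Universal 'all 10-mer' protein binding microarrays (Agilent AMADID 015681) probed with GST-tagged S. cerevisiae TFs (full-length or DBD) made by in vitro transcription/translation (PURExpress), about 100-200 nM. Bound TF was detected with fluorescent anti-GST. Each ungapped 8-mer (which stands for itself and its reverse complement) is scored by the PBM enrichment score (E-score), a modified Wilcoxon-Mann-Whitney statistic from -0.5 to +0.5, computed with the Universal PBM Analysis Suite. Scale: above 0.35 generally sequence-specific binding.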

Point of comparison: CTGATTAC, “PBM E-score” value 0.375. Against it:
- CCGCGCAC — lower, -0.234
- GAGGCAGA — lower, -0.133
- ACGTAGTC — higher, 0.39
- CCCGCCGG — lower, -0.293
- CAATTAAC — lower, 0.082
- ACGCAGCC — lower, -0.137
- AAAAGCCG — lower, -0.213
- AAATTAGT — lower, 0.27
- CCAGTGCC — lower, -0.189
- ATTTTGCA — lower, 0.0214
- AGCCGTAT — lower, -0.082
- GACCGGCC — lower, -0.196
- CCTATAAA — lower, -0.101
- CGGGAAAA — lower, -0.121
- GCCGGCGA — lower, -0.0124
- GACAACAA — lower, 0.156
- AGCGGAAG — lower, -0.191
- GAGTGCAC — lower, -0.108
- AATTTTCC — lower, -0.18
- AGTGAAGA — lower, -0.0368
- AGAGATAT — lower, -0.132
- GGGAGCCC — lower, -0.261
- AGCCATGA — lower, 0.282
- AACATTTA — lower, -0.105
- CAGATTAG — lower, 0.136
- CTGTTGTA — lower, 0.115
- AAAGAACA — lower, -0.0705
- TAACTTCA — lower, 0.014
- GATTGGGA — lower, 0.0503
- CTCATACC — lower, 0.155
- GATGTCGC — lower, -0.27
- CTGGTGGC — lower, -0.138
- CGCTAGTA — lower, 0.0198
- ACTTCTTG — lower, -0.107
- AATCTCAG — lower, 0.00667
- GCTTCACA — lower, -0.298
- GCTCAAAC — lower, 0.0109
- GCGAGCAC — lower, -0.0901
- ATTATGAA — lower, 0.253
- AGTCGCAT — lower, 0.365
- CGTTTTCA — lower, -0.152
- GTGTTCGA — lower, 0.0564
- AAACGTCC — lower, -0.132
- ATAAAATA — lower, 0.0161
- CCGCCCCG — lower, 0.0462
- ACGATGCG — lower, -0.083
- AAGTAGAT — lower, 0.00219
- CGCTCACG — lower, -0.0623
- ACGTGAAT — lower, -0.00715
- ACTGCCTG — lower, 0.122
- AACGTACG — lower, -0.143
- GCGGCTAC — lower, -0.0969
- CGTCTACC — lower, -0.167
- GTTCCGCA — lower, 0.0395
- AGGTGGAC — lower, -0.133
- GAACGGTA — lower, -0.0787
- AGGGGTTC — lower, -0.306
- AATTGGCA — lower, -0.155
- ATCTTGAC — lower, 0.111
- CCAGTACA — lower, 0.0592
- CGTGAATC — lower, 0.351
- GGTCCAGA — lower, -0.177
- CGTTGGTA — lower, -0.149
- CTGTATTA — lower, 0.084
- AGTCTCAT — lower, 0.35
- CACATGTA — lower, 0.12
- CCCAGTTA — lower, -0.121
- ACCGCCCG — lower, -0.298
- AAGTCGGG — lower, 0.043
- ATAATATC — lower, 0.0263
- GACTTTGA — lower, 0.271
- CCCAGTGA — lower, 0.0589
- CTAGGGAA — lower, 0.0319
- CTATTGGA — lower, -0.0392
- CTCGACAC — lower, -0.0303
- ACATGCAC — lower, -0.134
- CCGTAGGC — lower, -0.119
- GACAGCCC — lower, -0.251
- GTCACCGA — lower, 0.217
- GGATAGTA — lower, 0.0259
- TATTAGCA — lower, 0.0544
- CGGACATA — lower, -0.212
- ATACGGCC — lower, -0.0448
- CCCCATCG — lower, -0.149
- GAGATGAC — lower, 0.367
- GGTCGATA — lower, -0.014
- CGACTCCA — higher, 0.378
- GTGGTGCA — lower, -0.224
- GCCGATCC — lower, -0.297
- GCCAAATA — lower, -0.0624
- AACCAGAC — lower, 0.00178
- CCATCTGC — lower, -0.0126
- AGTGCAAC — lower, 0.016
- GTGCTCGA — lower, 0.0425
- GTGTGGTA — lower, -0.0564
- AAACGCAA — lower, 0.0476
- GAGCATCC — lower, -0.385
- CGCAATAC — lower, 0.102
- CCGTCCAG — lower, -0.0948
- CCGCGTAG — lower, -0.0989
- TAACGCAA — lower, -0.0589
- GTGCCATA — lower, -0.327
- GATGATGC — lower, 0.0169
- GCTAAGCC — lower, -0.0917
- ACACAGGC — lower, -0.0299
- GAACGTTA — lower, -0.277
- GGATACTA — lower, -0.124
- AAGAGTGG — lower, -0.242
- GGAACCAA — lower, -0.106
- GATCCCCC — lower, -0.4
- GCGCATAC — lower, -0.26
- GGTCTAGA — lower, 0.0169
- CATTACGG — lower, -0.219
- CACGGTAA — lower, 0.0166
- GTTCCCAA — lower, -0.0804
- CCGATATA — lower, -0.104
- CTCCTCAA — lower, -0.0008
- CGCTAGCC — lower, -0.305
- AATTATTA — lower, 0.0705
- CTCCCCAA — lower, -0.00906
- CCGTTCAG — lower, -0.187
- AGTTGCCG — lower, -0.249
- CTTAGGCC — lower, -0.115
- ATCTAAAG — lower, 0.0395
- ACGTCTAA — lower, 0.0568
- CCTTTTCG — lower, -0.126
- CGCAACAC — lower, 0.201
- GCGCAACC — lower, -0.199
- GGCCAGAA — lower, -0.177
- CAGACGAA — lower, -0.0171
- CGCTTCGA — lower, -0.105
- CCGAGATA — lower, 0.121
- CGAGCAAA — lower, -0.197
- AAACCGCG — lower, -0.105
- TCCCGGGA — lower, -0.0321
- ACTACTTA — lower, 0.236
- ACAACAAA — lower, -0.019
- CCTCGGCA — lower, -0.203
- CTCTGGAA — lower, 0.00829
- AAGCACCG — lower, -0.164
- CACTGGAC — lower, 0.102
- GCGCCTGA — lower, -0.0839
- ATAGGGAT — lower, -0.122
- GTCACAAC — lower, 0.213
- CGACGGAA — lower, -0.0853
- GCGAGGAC — lower, 0.0958
- CTTGCTTC — lower, -0.192
- AGTTCATA — lower, 0.036
- AGAAATCA — lower, 0.357
- CCCCTAGA — lower, -0.0907
- CCACACAC — lower, -0.0431
- CTCCGGAC — lower, -0.0121
- AACGCGCG — lower, 0.0532
- GGCAGCGA — lower, -0.194
- GGGATACA — lower, -0.138
- ATGGAAAT — lower, -0.0146
- GACGGTCA — lower, -0.0972
- GGTCTCGA — lower, -0.0527
- ACCGAGGC — lower, -0.0911
- CTACGCAA — lower, -0.0184
- CCTAGCAG — lower, -0.117
- GTTGGTTA — lower, 0.0865
- AGTCTTAT — higher, 0.383
- AGTTTACG — lower, 0.0868
- CACCTGGG — lower, -0.00124
- AGTGATGG — lower, 0.0175
- AGCCACGA — lower, 0.14
- ATGGTAAC — lower, -0.113
- CCATCGAC — lower, -0.0393
- AACTATGA — lower, 0.237
- GAACGTCC — lower, -0.24
- TAGAAAAA — lower, 0.0544
- AGGCCATA — lower, -0.114
- ACTTAGTG — lower, 0.198
- AGGATAAC — lower, -0.227
- ATCGATAC — lower, 0.0246
- GCCACGTA — lower, -0.293
- CCCGCAGC — lower, -0.203
- GGGAAATA — lower, -0.0646
- CTATCTGC — lower, -0.073
- GGCAGTTA — lower, 0.0767
- CAACGGCA — lower, -0.126
- GATCGCAA — lower, -0.101
- CGCGGTCC — lower, -0.37
- CATGCTTC — lower, 0.0439
- AAATGAAC — lower, 0.0568
- GACAGATA — lower, -0.114
- GTCATTAA — lower, 0.324
- CAGCTACG — lower, 0.0148
- GACAAAAC — lower, -0.054
- ATTTATGC — lower, -0.0807
- CTAAGGAC — lower, 0.173
- TTAAGTAA — lower, 0.133
- AGGCGTCA — lower, -0.128
- AGTGTATG — lower, -0.148
- AGACTACA — lower, 0.344
- AATCGTCT — lower, 0.137
- CAGGTTCG — lower, -0.198
- ACGCTTAG — lower, -0.106
- ATTCCGAG — lower, 0.0157
- AAGCATTC — lower, -0.171
- CGGGGACC — lower, -0.222
- CTATTGAA — lower, 0.0653
- CCAGCTCG — lower, -0.063
- TCATACAA — lower, 0.175
- ATATTCTG — lower, -0.0808
- CACTGGCA — lower, 0.00787
- CGGAGGCC — lower, -0.387
- CTTACGCA — lower, 0.0189
- AATACGTC — lower, -0.176
- CTAAGGTA — lower, 0.105
- ATTAGCGA — lower, 0.0549
- ATTACATC — lower, -0.0119
- ACTTGTCC — lower, 0.0288
- AGATAAGG — lower, -0.163
- TAGTGACA — lower, -0.0291
- GGTAGCTA — lower, -0.152
- ACAAGCCT — lower, -0.0515
